Out of some 310,000 compounds screened, about 14,000 (4.5%) showed an effect of 50% or more. The effect is printed as a negative number. The list shows a part of the results.
Each compound was assayed against human ether-à-go-go-related gene (hERG) potassium channel (human, UniProt Q12809) (assay: primary screen, population patch clamp on CHO cells stably expressing hERG).
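Note: peak tail current of the secondary pulse compared with the same well before compound.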

Chain of human ether-à-go-go-related gene (hERG) potassium channel (Q12809 whole entry, looked up): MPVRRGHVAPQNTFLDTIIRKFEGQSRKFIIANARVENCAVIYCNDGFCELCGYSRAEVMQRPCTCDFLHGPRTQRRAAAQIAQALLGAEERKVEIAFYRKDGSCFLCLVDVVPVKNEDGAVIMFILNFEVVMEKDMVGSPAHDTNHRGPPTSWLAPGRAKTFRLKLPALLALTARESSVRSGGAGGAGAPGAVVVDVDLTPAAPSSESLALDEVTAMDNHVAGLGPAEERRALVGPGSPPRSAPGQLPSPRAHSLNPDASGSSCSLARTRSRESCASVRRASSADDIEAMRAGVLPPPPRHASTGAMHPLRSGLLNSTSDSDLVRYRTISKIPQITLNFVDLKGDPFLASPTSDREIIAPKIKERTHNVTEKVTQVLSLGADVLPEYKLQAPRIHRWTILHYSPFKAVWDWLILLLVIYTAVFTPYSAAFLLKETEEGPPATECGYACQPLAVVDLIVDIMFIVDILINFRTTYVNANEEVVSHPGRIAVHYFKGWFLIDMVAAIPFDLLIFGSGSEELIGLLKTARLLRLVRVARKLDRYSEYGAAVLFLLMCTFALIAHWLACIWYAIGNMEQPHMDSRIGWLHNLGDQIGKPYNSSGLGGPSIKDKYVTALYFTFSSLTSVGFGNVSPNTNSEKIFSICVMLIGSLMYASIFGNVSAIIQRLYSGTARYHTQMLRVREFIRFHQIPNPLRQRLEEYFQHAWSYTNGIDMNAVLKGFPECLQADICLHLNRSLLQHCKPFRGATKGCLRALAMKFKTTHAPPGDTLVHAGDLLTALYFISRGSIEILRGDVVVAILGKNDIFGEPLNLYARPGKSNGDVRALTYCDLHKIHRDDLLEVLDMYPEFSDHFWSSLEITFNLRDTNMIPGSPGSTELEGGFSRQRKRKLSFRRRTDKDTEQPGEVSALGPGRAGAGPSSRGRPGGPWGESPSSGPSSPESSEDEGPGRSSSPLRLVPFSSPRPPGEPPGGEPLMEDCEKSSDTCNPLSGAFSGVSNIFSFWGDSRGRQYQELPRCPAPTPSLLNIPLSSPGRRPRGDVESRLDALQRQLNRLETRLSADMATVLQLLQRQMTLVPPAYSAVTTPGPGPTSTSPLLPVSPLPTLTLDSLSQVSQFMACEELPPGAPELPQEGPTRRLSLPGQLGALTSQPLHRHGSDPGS

SMILES	hERG current change (%, negative = inhibition) at 10uM
CC(=O)N1CCCc2cc(S(=O)(=O)N3CCc4ccccc4C3)ccc21	-40.6%
CN1CCN(CCC(=O)Nc2ccc(OCc3ccccc3)cc2)CC1	-41.6%
CC(C)C(=O)Nc1cccc(NC(=O)c2cc3ccccc3o2)c1	-22%
COc1ccc(Cl)cc1NC(=O)c1cnc2sccn2c1=O	15.3%
O=C(NC(=S)N1CCN(C/C=C/c2ccccc2)CC1)c1cccnc1	-1.04%
COc1ccc(CNC(=O)/C=C/c2ccc(OCCCF)cc2)cc1	-3.42%
CN1C(=O)c2ccccc2NC(=O)C1Cc1ccccc1 (stereo not shown)	15.4%
CCOc1c(Cl)cc(CNCc2ccncc2)cc1OC.Cl	9.45%
CC1Cc2ccccc2N1C(=O)COC(=O)c1n[nH]c(=O)c2ccccc12 (stereo not shown)	-45.4%
Cc1ccccc1NCC(=O)N/N=C/C(Br)=C/c1ccccc1	2.12%
CCC(C)NS(=O)(=O)c1ccc(S(=O)(=O)N(CC(=O)Nc2ccccc2)Cc2ccco2)cc1 (stereo not shown)	23.3%
O=c1c2ccccc2nc(-c2cccs2)n1-c1ccccc1	7.32%
CN(CCCNC(=O)CCC(=O)N1CCOc2ccccc21)Cc1ccccc1	-30.7%
CN(c1ccccc1C(=O)Nc1ccc2c(c1)n(C)c(=O)n2C)S(C)(=O)=O	21.5%
COCCNC(=O)/C(C#N)=C/c1ccc(SC)cc1	6.32%
Cc1cc(C)c(S(=O)(=O)N2CCCOC2CNC(=O)C(=O)NCc2cccnc2)c(C)c1 (stereo not shown)	8.23%
Fc1ccccc1OCCCN1CCOCC1	9.41%
CC(Oc1ccccc1)c1ccn[nH]1 (stereo not shown)	16.2%
Cc1occc1-c1nnc(SCC(=O)N2CCOCC2)n1Cc1ccco1	12.8%
C=CCc1cc(/C=C2/NC(=O)N(CC(=O)OC)C2=O)cc(OC)c1O	1.91%
O=C(O)c1sccc1Oc1ccc(F)cc1[N+](=O)[O-]	-14.8%
COc1cc(CC(=O)N2CCC(n3nccc3NC(=O)C3CC3)CC2)cc(OC)c1OC	12.8%
O=c1cc(O)c2sc(Nc3ccc(F)cc3)nc2[nH]1	20%

SMILES	hERG current change (%, negative = inhibition) at 10uM
CCOC(=O)Cc1c(C)nc(Cc2ccc(OC(C)C)cc2)[nH]c1=O	8.47%
CCn1c(Cc2ccccc2)nnc1SCC(=O)Nc1ccccc1O	11.5%
O=C(O)c1ccc(CSc2nc(-c3ccccc3)cc(C(F)(F)F)n2)cc1	9.23%
Cc1cc(SCc2ccc(Cl)c(Cl)c2)nc(=O)[nH]1	5.19%
Cc1ccc(S(=O)(=O)N2CCCCC2CCNC(=O)C(=O)NCc2ccccc2)cc1 (stereo not shown)	-7.6%
CCCCOc1ccc(C(=O)N2CCN(c3ncccn3)CC2)cc1	-9.16%
CCc1c(C)nc(N)nc1Cl	19.9%
COc1ccc(/C(O)=C2/C(=O)C(=O)N(CC3CCCO3)C2c2ccc(O)c(OC)c2)cc1 (stereo not shown)	19.1%
O=C(O)c1ccc2c(c1)SC1=NS(=O)(=O)CCN12	8.48%
O=c1[nH]c(-c2ccco2)nc2sc3c(c12)CCCC3	7.64%
COCCCNCCCCOc1ccc(Br)cc1Cl.O=C(O)C(=O)O	-67.1%
Cc1ccc(NCc2nnc(SCC(=O)OC3CCCCC3)o2)c(C)c1	8.15%
CN(C)/C=C(/C(=O)c1ccc(Cl)cc1Cl)S(=O)(=O)c1ccccc1	8.62%
Brc1cccc(CN2CCCCCC2)c1	2.02%
COCCN(Cc1ccccc1)C(=O)c1cc(-c2ccc(OC)c(OC)c2)nc2ccccc12	-12.4%
Cc1nnc(SC(C)C(=O)Nc2ccc3c(c2)OCCO3)s1 (stereo not shown)	8.52%
CC(C)NC(=O)c1onc(CSc2cccc(F)c2)c1C(=O)O	6.47%
COC(=O)c1ccc(NC(=O)COc2ccc([N+](=O)[O-])cc2)cc1	12.4%
CCOC(=O)c1c(C)[nH]c(C(=O)OCC(=O)N(C)CC(=O)Nc2ccccc2Cl)c1C	-2.23%
O=C(CN1CCCCC1)Nc1cccc(-n2cnnn2)c1	0.45%
CC(C)(C)SCCNC(=O)c1cccc([N+](=O)[O-])c1	10.5%
Cc1ccc(C2=CC(=O)CC(C)(C)C2)cc1	2.6%
Cc1ccc(NC(=O)CNC(=O)c2ccc(C)o2)cc1	9.14%
